The chains are these.
B1: LINE1-mini (parent)
chain: GGCAGAGCUCAACACAGCGUGGCAAAGUGGCUGUGGCUAGACUGCC

The source gives no read counts; variants with many changes may rest on few reads.

Variants of B1 are the subject of the data set. As to the kind of experiment: self-cleavage, relative activity (ratio to wild type); higher = more cleavage; in vitro, sequencing; the parent is a self-cleaving ribozyme.
As for GCCAGAGCUCAACAUAGCGUGGCAAAGUGGCUGUGGCCAGACUGCC [G2C C15U U38C], the self-cleavage was found to be 0.04.

Consider GCCAGAGCUCAACACAGCCUGGCAAAGUGGCUGUGGCUUGACUGCC [G2C G19C A39U], for which the self-cleavage came out at 0.

In the case of GCCAGAGCUCAACACACCGUGGCAAAGUGGCUGUGGCUAGACUGGC [G2C G17C C45G], the self-cleavage is 0.71.

As to GCCAGAGCUCAACACAGGGUGGCAUAGUGGCUGUGGCUAGACUGCC [G2C C18G A25U], the self-cleavage came out at 0.02.

With GCCAGAGCAAAACACAGCGUGGCAAAGUUGCUGUGGCUAGCCUGCC [G2C U9A C10A G29U A41C], the self-cleavage was determined as 0.01.

Consider GCCAGAGCACUACACAGCGUGGCAAAGUGGCUGUGGCUAGACUGCC [G2C U9A A11U], for which the self-cleavage amounted to 0.03.

For GCCAGAGCUCAACACAGCGUGGCAAAGUGGCCGUGUGCAGUCUGCC [G2C U32C G36U C37G U38C A41U], the self-cleavage stood at 0.02.

GCCAGAGCUCAACACAGCGUGACAAAGUGGCUGUGGCUAGACUGAC [G2C G22A C45A]: the self-cleavage is 0.38.

For GCCACAGCUCAUCACAGCGUGGCAAAGUUGCUGUGGCUUGAUUGCC [G2C G5C A12U G29U A39U C42U], the self-cleavage was found to be 0.03.

Take GCCAGAGCGCAACACAGAGUGGCAAAGUGGCUGUGGCUAGACUGCC [G2C U9G C18A]: the self-cleavage amounted to 0.04.

GCCAGAGCUCAACACAGCGUGGCAAAGUGGCUGUGUCUGGACUGCC [G2C G36U A39G]: the self-cleavage stood at 0.11.

For the variant GUCGGAGCUAAACAAAGCGUGUCAAUGUGGCUGUGGCUAGACUGCC [G2U A4G C10A C15A G22U A26U], the self-cleavage was found to be 0.02.

As to GCCAGAGCUCAACACAGCGUGGCAAAGUGGCUGUGGCAACACUGCC [G2C U38A G40C], the self-cleavage worked out at 0.02.

For GCCAGAGCUCAACACACCGUGGAAAAGUGGCUGUGGAUAGAUUGCC [G2C G17C C23A C37A C42U], the self-cleavage was 0.35.

Regarding GCCAUAGCUCAACACAGCGUGGCAAAGUGCCUGUGGCUAGACUGCC [G2C G5U G30C], the self-cleavage stood at 0.06.

Consider GCCAUAGCUCAACACAGCGUGGCAAAGUGGCUGUGCCUAGACUGCC [G2C G5U G36C], for which the self-cleavage is 0.02.

As to GCCAGAGCACAACACAGCGUGGCAAAGUGGCUGUCUCUAGACUGCC [G2C U9A G35C G36U], the self-cleavage was 0.01.

Take GCCAGAGCUCAACACAGCGUGGCAAAGUGGCCGUGUCUAGACUGCC [G2C U32C G36U]: the self-cleavage was found to be 0.02.

Take GCCAGAGCUCAACAAAGCGUGGCAAAGUGGCUGUUGCUAGACUGCC [G2C C15A G35U]: the self-cleavage turned out to be 0.05.

Regarding GUCGGAGCUCAACACAGCGUGGAAAAGUGGCUGUGGCUAGACUGCC [G2U A4G C23A], the self-cleavage is 0.06.

Consider GCCAGAGCUCAACACAGCCUGGCAAAGUGGUUUUGGCUAGACUGCC [G2C G19C C31U G33U], for which the self-cleavage amounted to 0.03.

As to GCCAGAGCUCAACAGCGCGUGGCAAAGUGGCAGGGGCUAGACUGCC [G2C C15G A16C U32A U34G], the self-cleavage amounted to 0.08.

Regarding GCCAGAGCUCAACACAGCGUUGUAAAGUGGCUGCGGCUAGACUGCC [G2C G21U C23U U34C], the self-cleavage came to 0.08.

Regarding GCCAGAGCUCAACACAGCGUGGCAAAGUGGAUGUCGCUAGACUGCC [G2C C31A G35C], the self-cleavage was determined as 0.07.

As to GCCAGAGCUCAACAAAGCGUGGUAAAGUGGUUGUGGCUAGAAUGCC [G2C C15A C23U C31U C42A], the self-cleavage came out at 0.29.

Take GCCAGAGCGCAACACAGCGUGGCAAAGUGGCUGUUGCUAAACUGCC [G2C U9G G35U G40A]: the self-cleavage is 0.

For GCCAGAUCUCAACACAGCGUGGCAAAGUGGCUGUAGCUAAACUGCC [G2C G7U G35A G40A], the self-cleavage was determined as 0.16.

Take GCCAAAGCUCAACACAGCGUGGCAAAGUGGCUGUGGCUAGACUCCC [G2C G5A G44C]: the self-cleavage was 0.09.

For the variant GUCUGUGCUUAACACAGCGUGGCAAAGUGGCUGUGGCUAGACUGUC [G2U A4U A6U C10U C45U], the self-cleavage amounted to 0.13.

For GCCAGAGCUCAACACAGCGUGGCAAACUGUCUGUGGCUAGACUUUC [G2C G27C G30U G44U C45U], the self-cleavage was 0.04.

On to GCCAGAGCUCAACACAGCGUGGCAAAGUACCUGUGGCUAGACUGCC [G2C G29A G30C], for which the self-cleavage came to 0.15.

On to GCCAGAGCUCAACACAGCGUGGCAAAGUGGCUUCGGCUAGACUGGC [G2C G33U U34C C45G], for which the self-cleavage was determined as 0.08.

For GCCAGAGCUCAACACAGCUUGGCGAAGUGGCUGUCGCUAGAUUGCC [G2C G19U A24G G35C C42U], the self-cleavage came out at 0.01.

GCCAGAGCUCAACACAGCGUCGCAAAGUGGCUGUGGCUAGACUACC [G2C G21C G44A]: the self-cleavage was 0.02.

As for GCCAGAGCUCAACACAACGUGGCAAAGUGGCUAUGGCUAGACUGCC [G2C G17A G33A], the self-cleavage stood at 0.04.

With GUCCGAGCUAAACACAGCGUGGCAAAGGCGCUGUGGCUAGACUGCC [G2U A4C C10A U28G G29C], the self-cleavage was determined as 0.02.

Take GCCAGAGCUCAACACAGCGUGGCAAAGUGGCUGUGGCAAGACCGCC [G2C U38A U43C]: the self-cleavage came to 0.35.

For the variant GCCAGAGCUCAACACAGCGUGGCAAAGUCGCUGUGGCUAGACUGUC [G2C G29C C45U], the self-cleavage was determined as 0.15.

With GCCAGAGCUCAACACAGCGUGGCAAAAUGGAUAUGUCUAGACUGCC [G2C G27A C31A G33A G36U], the self-cleavage came to 0.03.

For GCCAGAGCUCAACACAGCGUGGCAAAGUGGUUGUGUCUAAAUUGCC [G2C C31U G36U G40A C42U], the self-cleavage came out at 0.01.

Consider GCCAGAGCUCAACACAUCGUGUCAAAGUGGCUGUGGCUAGACUUCC [G2C G17U G22U G44U], for which the self-cleavage amounted to 0.02.

On to GUCGGAGCUCCACACAGCGUGGCAAAGUGGCUGUGGCUUGACUGCC [G2U A4G A11C A39U], for which the self-cleavage came out at 0.03.

On to GCCAAAGUUCAACACAGCGUGGCAAAUUGGCUGUGGCUAGCUUGCC [G2C G5A C8U G27U A41C C42U], for which the self-cleavage is 0.09.

With GUCGGAGCUCAACACAGCGUUGCAAAAUGGCUGUGGCUAGACUGCC [G2U A4G G21U G27A], the self-cleavage came out at 0.1.

In the case of GCCAGAGCACAACACAGCGUGACAAAGUGGCUAUGACUAGACUGCC [G2C U9A G22A G33A G36A], the self-cleavage worked out at 0.07.

GCCAGAACUCAACACAGCAUGGCAAAGUGGCUAUGCCUAGACUGCC [G2C G7A G19A G33A G36C]: the self-cleavage came out at 0.07.

Take GCCAGAGCUCAACACAGCGUGGCAAAAGGGCUGUGGCUAGACUGCC [G2C G27A U28G]: the self-cleavage stood at 0.06.

For the variant GCCAGAGCCCAACACCGCUUGGCAAAGUGGCUGUGGCUAGACUGCC [G2C U9C A16C G19U], the self-cleavage is 0.03.

In the case of GCCAGAGCUCAACACAGCGCGGCAAAGGGGCCGUGGCUAGACAGCC [G2C U20C U28G U32C U43A], the self-cleavage turned out to be 0.01.

Take GCCAGAGCUCAACACAGCGUGGCAAAGUGGGUGUGGCUAGAGUGCC [G2C C31G C42G]: the self-cleavage was 0.02.

As to GCCAGAGCUCAACACAGCGUGUCAAAGUGGCUGUGGCUAGACAGAC [G2C G22U U43A C45A], the self-cleavage turned out to be 0.06.

For GCCAGAGCUCAACACAGCGUGUCAAAGUGGCUGUGGCUAGACUGCA [G2C G22U C46A], the self-cleavage worked out at 0.06.

Turning to GCCAGAGCUCAACACAGCGUGGUAAAGGGGCUGUGGCUAGACUGCC [G2C C23U U28G], the self-cleavage worked out at 0.08.

Regarding GCCAGAGCUCAACACAGCGUGGAAAAGUGGCUGUGGCUAGACUGCG [G2C C23A C46G], the self-cleavage was 1.3.

With GCCAGAGCUCAACACAACGUGGCAAAGUGGCUGUGGCAAGACUGCC [G2C G17A U38A], the self-cleavage came out at 0.11.

For GCCAGAGCGCAACACAGCGUGCCAAAGUGGCUGUGGCUAGACUGCC [G2C U9G G22C], the self-cleavage worked out at 0.03.

The values above are taken from the RNAGym collection of RNA variant scans (doi:10.7554/elife.90254).
